To fix the notation:
B1: PhoQ; a variant is named by its letters at X, in order, P23837 (parent)
chain: MKKLLRLFFPLSLRVRFLLATAAVVLVLSLAYGMVALIGYSVSFDKTTFRLLRGESNLFYTLAKWENNKLHVELPENIDKQSPTMTLIYDENGQLLWAQRDVPWLMKMIQPDWLKSNGFHEIEADVNDTSLLLSGDHSIQQQLQEVREDDDDAEMTHSVAVNVYPATSRMPKLTIVVVDTIPVELKSSYMVWSWFIYVLSANLLLVIPLLWVAAWWSLRPIEALAKEVRELEEHNRELLNPATTRELTSLVRNLNRLLKSERERYDKYRTTLTDLTHSLKTPLXXLQXXLRSLRSEKMSVSDAEPVMLEQISRISQQIGYYLHRASMRGGTLLSRELHPVAPLLDNLTSALNKVYQRKGVNISLDISPEISFVGEQNDFVEVMGNVLDNACKYCLEFVEISARQTDEHLYIVVEDDGPGIPLSKREVIFDRGQRVDTLRPGQGVGLAVAREITEQYEGKIVAGESMLGGARMEVIFGRQHSAPKDE

The other results are listed elsewhere or left out. A value given as a limit tells only on which side of the number the result lay.

In the test the parent is B1. The test is described as follows: enrichment ratio after two sorts for PhoP signalling (ratio (wild type AVST 3.29)); higher = more functional. The following applies: with PhoP (E. coli).
With EIIF, the enrichment ratio was at most 0.25. As to FDFG, the enrichment ratio is at most 0.25. For the variant LIFM, the enrichment ratio was at most 0.25.

With FHVK, the enrichment ratio is at most 0.25. To TMWN belongs at most 0.25; to WMCF, at most 0.25; to DASD, at most 0.25. The value for IDES was at most 0.25; that for IFEW was at most 0.25. The value for MNAK was at most 0.25; that for FRRE was 0.446. In the case of RNSS, the enrichment ratio was at most 0.25.

With HDDK, the enrichment ratio was at most 0.25. The value for NQEM was at most 0.25; that for EILR was at most 0.25. To NCRV belongs at most 0.25.

As to AAMV, the enrichment ratio was 1.6. The value for EHNT was at most 0.25.

For NYNQ, the enrichment ratio was at most 0.25. On to PIVL, for which the enrichment ratio was at most 0.25. As for QPCM, the enrichment ratio is at most 0.25. MKER: the enrichment ratio is at most 0.25. With GWPD, the enrichment ratio was at most 0.25. The value for FTYG was at most 0.25; that for EIIC was at most 0.25; that for ISGW was at most 0.25.

For the variant NNMF, the enrichment ratio is at most 0.25.

As for DCHC, the enrichment ratio was at most 0.25. With DHDM, the enrichment ratio was at most 0.25.

On to TKQV, for which the enrichment ratio turned out to be 4.75. To VPWV belongs at most 0.25. In the case of RMCG, the enrichment ratio is at most 0.25. As to ECHN, the enrichment ratio was at most 0.25. For TKSC, the enrichment ratio amounted to 5.09. With RILP, the enrichment ratio is at most 0.25. For the variant RNYV, the enrichment ratio was at most 0.25.

Consider HGDW, for which the enrichment ratio was at most 0.25. With RSGA, the enrichment ratio was at most 0.25. MDIA: the enrichment ratio was at most 0.25. To FEEF belongs at most 0.25. To SWQK belongs at most 0.25; to IDTP, at most 0.25. Turning to WSWW, the enrichment ratio is at most 0.25. NTHL: the enrichment ratio was at most 0.25. As for WQGV, the enrichment ratio is at most 0.25. For the variant NNRE, the enrichment ratio was at most 0.25. Turning to SIYT, the enrichment ratio was at most 0.25. In the case of WLPE, the enrichment ratio was at most 0.25. To NRSG belongs at most 0.25; to YFQW, at most 0.25. To WNRN belongs at most 0.25; to NVRK, at most 0.25.

As for HIMC, the enrichment ratio is 48.5. For the variant PWTT, the enrichment ratio was at most 0.25. As for VEHK, the enrichment ratio was at most 0.25. As to EDYI, the enrichment ratio is at most 0.25.

Take HSYS: the enrichment ratio is at most 0.25. As to FYIC, the enrichment ratio is at most 0.25. YEGD: the enrichment ratio is at most 0.25. On to TLRH, for which the enrichment ratio is at most 0.25. Consider EADV, for which the enrichment ratio was at most 0.25. On to DYRN, for which the enrichment ratio was at most 0.25. In the case of EVYW, the enrichment ratio was at most 0.25. As for FGQN, the enrichment ratio was at most 0.25. With TWVP, the enrichment ratio is at most 0.25.

Consider VMQG, for which the enrichment ratio was at most 0.25. Regarding NLKD, the enrichment ratio was at most 0.25. As for KSIG, the enrichment ratio was at most 0.25.

For the variant MAGV, the enrichment ratio stood at 1.97. The value for RFIH was at most 0.25; that for LHIT was at most 0.25. The value for YMAL was at most 0.25. As to SQCI, the enrichment ratio is 15.6.

Take KTIG: the enrichment ratio is at most 0.25. For the variant RYIA, the enrichment ratio is at most 0.25. The value for KLHW was at most 0.25; that for NYPA was at most 0.25; that for RAHE was at most 0.25. For the variant NVKH, the enrichment ratio was at most 0.25. Turning to LTDC, the enrichment ratio is at most 0.25. For the variant PLKE, the enrichment ratio was at most 0.25. As to GECN, the enrichment ratio was at most 0.25. Take SQMM: the enrichment ratio turned out to be 3.97. Consider DFGY, for which the enrichment ratio was at most 0.25. Consider PIYK, for which the enrichment ratio was at most 0.25.

Consider TRCT, for which the enrichment ratio worked out at 18.2.

Take TYFM: the enrichment ratio is at most 0.25. In the case of KSRV, the enrichment ratio was at most 0.25. To FYVV belongs at most 0.25; to PQNA, at most 0.25. On to PTNP, for which the enrichment ratio was at most 0.25. To VECH belongs 24.1; to RQTP, at most 0.25; to PRFQ, at most 0.25. Consider HCLA, for which the enrichment ratio was at most 0.25. Consider WRGP, for which the enrichment ratio is at most 0.25. As for FYHR, the enrichment ratio was at most 0.25. Regarding IKTN, the enrichment ratio is at most 0.25.

Consider YYGI, for which the enrichment ratio was at most 0.25. On to EDQN, for which the enrichment ratio was at most 0.25. For HPPR, the enrichment ratio was at most 0.25. Consider NTDL, for which the enrichment ratio is at most 0.25.

For IFPK, the enrichment ratio is at most 0.25. In the case of TSQV, the enrichment ratio is 12.2.

For QLHH, the enrichment ratio is at most 0.25. For MSGT, the enrichment ratio was 2.82.

In the case of QTTR, the enrichment ratio is at most 0.25.

Regarding PAAW, the enrichment ratio is at most 0.25. Turning to GLCI, the enrichment ratio was determined as 9.01. Turning to INGW, the enrichment ratio was at most 0.25. To ALVP belongs at most 0.25; to DEKI, at most 0.25; to RIVQ, at most 0.25. To LTKA belongs at most 0.25. With GCTL, the enrichment ratio is 4.94.

As to ESIF, the enrichment ratio was at most 0.25. With LQDA, the enrichment ratio was at most 0.25. As for MAYV, the enrichment ratio turned out to be 15.4.

With VNIN, the enrichment ratio is at most 0.25. The value for KMPM was at most 0.25. To STIL belongs 9.06; to EEQH, at most 0.25; to GIQC, at most 0.25.

On to INRM, for which the enrichment ratio is at most 0.25. With YEMA, the enrichment ratio worked out at 0.594. In the case of RLWE, the enrichment ratio was at most 0.25.

As for EQMW, the enrichment ratio was at most 0.25.

As for QCKF, the enrichment ratio is at most 0.25. Take VWIY: the enrichment ratio was at most 0.25. In the case of PLAN, the enrichment ratio was at most 0.25. VREF: the enrichment ratio is at most 0.25.

In the case of SITP, the enrichment ratio was at most 0.25. DPQF: the enrichment ratio was at most 0.25. Consider LPYC, for which the enrichment ratio is at most 0.25. For the variant EAAV, the enrichment ratio is at most 0.25. On to WFAG, for which the enrichment ratio is at most 0.25. Turning to LHDL, the enrichment ratio is at most 0.25.

FDCK: the enrichment ratio was at most 0.25. Take YPDK: the enrichment ratio is at most 0.25. RPKS: the enrichment ratio was at most 0.25. As to GDKY, the enrichment ratio was at most 0.25. Take VGAK: the enrichment ratio is at most 0.25.

For the variant MSNR, the enrichment ratio is at most 0.25. As to CWML, the enrichment ratio was at most 0.25.

In the case of HMTM, the enrichment ratio was 11.7. As to PHYG, the enrichment ratio was at most 0.25. For the variant RFKY, the enrichment ratio was at most 0.25. Turning to KGNV, the enrichment ratio was at most 0.25. DDVI: the enrichment ratio is at most 0.25. For the variant AQFH, the enrichment ratio is at most 0.25. As to VRVP, the enrichment ratio was at most 0.25. To QHDW belongs at most 0.25; to HTAV, at most 0.25.
